Among all 310,000 compounds or so, about 2,200 (0.71%) showed an effect of 50% or more. The effect is printed as a negative number. Some of the results follow.
What follows are compounds tested against human ether-à-go-go-related gene (hERG) potassium channel (human, UniProt Q12809) (assay: primary screen, population patch clamp on CHO cells stably expressing hERG).
Sequence of human ether-à-go-go-related gene (hERG) potassium channel (Q12809 whole entry, looked up): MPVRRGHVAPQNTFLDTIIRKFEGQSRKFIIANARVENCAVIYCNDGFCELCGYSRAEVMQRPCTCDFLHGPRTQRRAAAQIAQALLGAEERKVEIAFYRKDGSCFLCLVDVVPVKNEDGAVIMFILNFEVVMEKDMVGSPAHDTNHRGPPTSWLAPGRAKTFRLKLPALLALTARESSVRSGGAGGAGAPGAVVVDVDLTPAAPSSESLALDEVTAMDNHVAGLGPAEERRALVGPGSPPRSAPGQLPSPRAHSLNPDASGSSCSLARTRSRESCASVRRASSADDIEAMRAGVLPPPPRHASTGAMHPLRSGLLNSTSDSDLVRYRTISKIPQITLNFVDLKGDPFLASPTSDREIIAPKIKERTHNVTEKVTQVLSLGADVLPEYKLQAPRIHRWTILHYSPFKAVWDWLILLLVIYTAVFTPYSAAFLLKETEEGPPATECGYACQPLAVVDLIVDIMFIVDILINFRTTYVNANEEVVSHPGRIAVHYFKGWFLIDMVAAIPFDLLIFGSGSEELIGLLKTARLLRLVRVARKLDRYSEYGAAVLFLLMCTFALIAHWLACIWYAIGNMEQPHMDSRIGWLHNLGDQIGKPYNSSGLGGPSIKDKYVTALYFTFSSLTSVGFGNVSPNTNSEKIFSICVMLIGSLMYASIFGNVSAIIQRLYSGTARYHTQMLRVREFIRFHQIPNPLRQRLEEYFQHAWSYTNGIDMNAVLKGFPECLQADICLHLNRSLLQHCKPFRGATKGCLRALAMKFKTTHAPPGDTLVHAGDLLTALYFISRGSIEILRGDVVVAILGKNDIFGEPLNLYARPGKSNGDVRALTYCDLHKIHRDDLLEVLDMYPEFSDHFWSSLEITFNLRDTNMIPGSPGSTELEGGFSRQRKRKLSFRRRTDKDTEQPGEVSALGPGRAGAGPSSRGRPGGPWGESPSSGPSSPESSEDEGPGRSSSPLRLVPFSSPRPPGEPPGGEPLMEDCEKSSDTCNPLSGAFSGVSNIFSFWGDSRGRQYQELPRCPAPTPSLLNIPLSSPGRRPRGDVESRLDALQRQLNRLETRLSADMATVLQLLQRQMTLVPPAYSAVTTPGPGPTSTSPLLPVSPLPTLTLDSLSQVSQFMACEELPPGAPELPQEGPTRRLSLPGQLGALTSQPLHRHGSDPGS

Row | Structure (SMILES) | hERG current change (%, negative = inhibition) at 1uM [%]
1 | COc1cc2ccccc2cc1C(=O)N1CCCC(C(F)(F)F)C1 (centres unmarked) | -0.177
2 | O=C(/C=C\c1ccc2c(c1)OCO2)NC1(C(=O)Nc2ccc3c(c2)OCCO3)CCCCC1 | 10.1
3 | COCCNC(=O)c1onc(CSc2cc(C)ccc2C)c1C(=O)O | 8.8
4 | CN1C(=O)C(CC(=O)NCCc2ccccc2)N(NC(=O)c2cccc(F)c2)C1=S (centres unmarked) | 7
5 | COc1cc(NS(=O)(=O)c2ccc3c(c2)NC(=O)CO3)cc(OC)c1 | 9.41
6 | COc1ccc(C(=O)NCCNc2ccc([N+](=O)[O-])cc2)cc1 | -5.45
7 | CC(C)CCNC(=O)CN(Cc1cccs1)C(=O)CCC(=O)Nc1nccs1 | 6.84
8 | COC(C(=O)Nc1ccc(NC(=O)C(OC)c2ccccc2)cc1)c1ccccc1 (centres unmarked) | 13.3
9 | Cc1ccc(C(=O)N2CCCC(Nc3ccc(C)c(C)c3)C2)c(=O)[nH]1 (centres unmarked) | -9.19
10 | CCOC(=O)c1cc2ccccc2nc1C | 9.54
11 | O=C(O)CCC(=O)Nc1cccc(C(=O)Nc2cccc(Cl)c2)c1 | 3.56
12 | NC(=O)c1nn(-c2ccccc2)nc1N | 8.29
13 | Cc1ccc(-c2noc(CCC(=O)Nc3ccccc3C)n2)cc1 | 15.2
14 | CC(C)OCCCN(C)C1CCN(S(=O)(=O)c2ccc(-c3cc(C(F)(F)F)no3)s2)CC1 | 7.62
15 | CCN1CCN(Cc2cc(Br)cc(Br)c2O)CC1 | -5.4
16 | CC1CCN(C(=S)c2ccc(-c3ccc(Cl)cc3Cl)o2)CC1 | 7.44
17 | CCOc1ccc(OCc2ccc(C(=O)N3CCCCC3)o2)cc1 | 12
18 | COc1ccc(NC(=S)N2c3ccccc3CC2C)cc1OC (centres unmarked) | 6.29
19 | COC(=O)c1ccc(Oc2nc3ccccc3n3c(C)nnc23)cc1 | 6.24
20 | Cc1ccc(NC(=O)CNC(=O)c2ccco2)cc1Cl | 20.4
21 | CCOC(=O)C(=CNc1cc(C)ccc1-n1cccc1)C(=O)OCC | 13.5
22 | Cn1cnnc1Sc1ccc(C(=O)NCCC23CC4CC(CC(C4)C2)C3)cc1[N+](=O)[O-] | 8.9

Row | Structure (SMILES) | hERG current change (%, negative = inhibition) at 1uM [%]
23 | Cc1ccc(C)c2[nH]c(=O)c(CCNC(=O)c3ccc(S(=O)(=O)N4CCCC4)cc3)cc12 | 0.21
24 | Cc1csc(NC(=O)CCCC(=O)c2ccccc2)n1 | 8.01
25 | COc1ccc(-c2ccc(/C=N/NC(=O)Cc3nnc(N)s3)o2)cc1Cl | 12.2
26 | COc1ccc(Cn2c(C3CC3)nc3ccc(NC(=O)C4CC4)cc3c2=O)cc1 | 8.33
27 | Nc1c(S(=O)(=O)c2ccccc2)c2nc3ccccc3nc2n1C1CC1 | 5.09
28 | CCn1c(=O)c(C(=O)CN(C)Cc2cccc(OC)c2OC)c(N)n(Cc2ccccc2)c1=O | -18.3
29 | Cc1csc(=O)n1CC(=O)OCC(=O)NCc1ccccc1 | 6.17
30 | CC(=O)OCC[N+](C)(C)C.[Br-] | 10.7
31 | O=C(Nc1ccncc1)c1ccc([N+](=O)[O-])cc1Cl | 7.44
32 | Cc1c(-c2ccccc2)c(=O)oc2ccc(O)cc12 | 15.4
33 | COc1ccccc1C(CNC(=O)c1cccc(S(=O)(=O)Nc2ccc(C)cc2)c1)N1CCCC1 (centres unmarked) | 2.59
34 | CCOc1ncccc1C(=O)OCC(=O)c1c[nH]c2ccccc12 | 3.73
35 | Cc1nnc(SCC(=O)NNC(=O)c2ccco2)n1-c1ccccc1 | 12.1
36 | CCN(CCO)C(=O)c1ccc2oc(Cc3ccc(Cl)cc3)nc2c1 | 10.9
37 | Cc1ccc([N+](=O)[O-])cc1N=C1C(=O)Nc2ccccc21 | 7.89
38 | Cc1ccc(S(=O)(=O)N2CCC(C(=O)NNC(=O)c3ccccc3O)CC2)cc1C | 5.25
39 | CC(C)(C)OC(=O)[C@H](Cc1ccccc1)NC(=O)c1nc[nH]c1C(=O)NC1CCN(C(=O)OC(C)(C)C)CC1 | 12.5
40 | CCN1CCN(C(=O)c2cc3nc(-c4ccccc4)cc(C(F)(F)F)n3n2)CC1 | 5.33
41 | CC(C)Nc1ccc(C(CC(N)=O)NC(=O)Cc2ccc(Br)cc2)cc1[N+](=O)[O-] (centres unmarked) | 1.18
42 | CC1CCCCN1C(=O)NC1CC(=O)N(c2ccc3c(c2)OCCO3)C1 (centres unmarked) | 14.9
43 | Cc1ccc(Cl)cc1N1CCN(C(=O)CSc2ccsc2[N+](=O)[O-])CC1 | -1.03
44 | CN(C)/C=c1\sc2c(C#N)cc(C(=O)c3ccc(Br)cc3)n2c1=O | 3.43

Row | Structure (SMILES) | hERG current change (%, negative = inhibition) at 1uM [%]
45 | C=CCN(CC=C)Cc1c(O)ccc2c1oc(=O)c1ccccc12 | -17.5
46 | Cc1ccc(-n2nc3c(=O)n(CC(=O)c4ccc(F)cc4)nc(C)c3c2C)cc1 | -4.69
47 | CCOC(=O)c1sc(NC(=O)C(C)Sc2nc(N)cc(=O)[nH]2)nc1C (centres unmarked) | 14
48 | CCCNCc1cc(OCC)c(OCC(N)=O)cc1Br | 9.02
49 | COc1ccc(OC)c(S(=O)(=O)NCCCn2ccnc2)c1 | 13.2
50 | Cc1cccc(C(=O)Oc2ccccc2/C=N/Nc2ccc([N+](=O)[O-])cc2)c1 | 15.4
51 | CC1CCC(C(=O)NC(C(=O)NCc2ccccn2)C(C)C)CC1 (centres unmarked) | 6.45
52 | CC(Sc1nncn1C)C(=O)Nc1nnc(-c2ccccc2)s1 (centres unmarked) | 12.2
53 | CC(C)c1ccc(Nc2nc(Cl)nc(Cl)n2)cc1 | 13.5
54 | O=C(C1CCN(c2nnc(-n3cccc3)s2)CC1)N1CCN(c2cccc(C(F)(F)F)c2)CC1 | -6.44
55 | CCOC(=O)C1(Cc2cccc(OC)c2)CCCN(Cc2cnn(C)c2)C1 (centres unmarked) | 8.31
56 | CCOc1ccc2nc(SCC(=O)Nc3ccc4[nH]c(=O)[nH]c4c3)[nH]c2c1 | 25.2
57 | COc1ccc2c(c1)CC(C(=O)Nc1ccc(Cl)cc1)/C(=N/O)O2 (centres unmarked) | 15.2
58 | O=C(CCCN1C(=O)/C(=C/c2cccc(Br)c2)SC1=S)NCCCN1CCOCC1 | 4.2
59 | COc1ccc(C2CC(c3ccc([N+](=O)[O-])cc3)=NN2C(=O)c2ccccc2)cc1OC (centres unmarked) | 8.63
60 | COC(=O)CSc1nnc(-c2c[nH]c3ccccc23)o1 | 0.583
61 | O=C(C/C(=N\NC(=O)c1ccccc1Br)C(F)(F)F)c1cccs1 | 3.65
62 | Cc1cc(Cn2nnc(-c3ccc(Br)cc3)n2)cc(C)c1O | 11.1
63 | CCOc1ccc(OCCCN(C)C)cc1 | 11.3
64 | CN(C)c1ccc(C(C#N)c2ccc(Cl)cc2)nn1 (centres unmarked) | 6.89
65 | Cc1cc(C(F)(F)F)n(-c2nc(C(=O)NNS(=O)(=O)c3ccccc3)cs2)n1 | 2.27
66 | O=C(CC1C(=O)NCCN1C(=O)Nc1ccc(C(F)(F)F)cc1)Nc1ccc(F)cc1 (centres unmarked) | 12.3

Row | Structure (SMILES) | hERG current change (%, negative = inhibition) at 1uM [%]
67 | CNC(C)C(=O)NC(C(=O)N1CCCC1C(=O)NNc1ccccc1)C(C)C.O=CO (centres unmarked) | 8.62
68 | Cc1ccc(S(=O)(=O)c2nc(C(C)(C)C)oc2N2CCOCC2)cc1 | 8.74
69 | COC(=O)C1CCN(C(=O)CN2C(=O)NC(CCc3ccccc3)C2=O)CC1 (centres unmarked) | 11.3
70 | CCOc1ccc(-n2c(O)c(C=Nc3ccc(N(CC)CC)cc3)c(=O)[nH]c2=O)cc1 | 12.5
71 | Cc1ccc2nc3c(cc(C(=O)NC4CCCC4)c(=N)n3C3CCCCC3)c(=O)n2c1 | -86.2
72 | COCCn1c(SCC(=O)Nc2nnc(C)s2)nnc1-c1ccco1 | 8.74
73 | COC(=O)[C@@]12CCCN1[C@H](c1ccc(-c3ccccc3)cc1)[C@H]1C(=O)N(C)C(=O)[C@H]12.O=C(O)C(F)(F)F | 0.751
74 | CSc1ncccc1C(=O)Nc1ncc(C)s1 | 11.1
75 | COc1cc(OC)cc(C(=O)Nc2ccc3c(c2)n(C)c(=O)n3C)c1 | 8.55
76 | CCN(CC)C(=O)c1sc2nc(-c3ccccc3)ccc2c1N | 13.3
77 | CC1CC(C)CN(S(=O)(=O)c2ccc(C(=O)N3CCOCC3)cc2)C1 (centres unmarked) | 5.11
78 | CCOc1ccc(OCCN2C(=O)c3ccccc3C2=O)cc1 | 10.8
79 | CC(C)C(=O)NC(c1ccc([N+](=O)[O-])cc1)c1c(O)ccc2ccccc12 (centres unmarked) | 0.552
80 | O=C(COC(=O)C1CC1)Nc1ccc([N+](=O)[O-])cc1C(F)(F)F | 7.29
81 | Cc1nn(-c2ccccc2)c2nc3c(cc12)C(=O)CCC3 | 9.08
82 | Cc1ccccc1C(=O)c1cccn1CC(=O)NCc1cccc(Cl)c1 | 19.9
83 | CN(C)CCn1cnc2c(c1=N)C(c1ccccc1)c1ccc3ccccc3c1O2 (centres unmarked) | -78.1
84 | COc1cc(/C=C2\C(=N)N3N=C(S(C)(=O)=O)SC3=NC2=O)ccc1OS(=O)(=O)c1ccccc1 | 16.4
85 | O=C(CCS(=O)(=O)c1cc(Br)cc2c1N(C(=O)C1CC1)CC2)NCC1CCCO1 (centres unmarked) | 15.4
86 | C=CCNCc1cccn1-c1ccccc1.O=C(O)C(=O)O | 12.7
